Test [1] deals with T1, Flag-tagged mouse SPO11 (β isoform) E224A (mouse) (UniProt Q9WTK8).
T1 sequence: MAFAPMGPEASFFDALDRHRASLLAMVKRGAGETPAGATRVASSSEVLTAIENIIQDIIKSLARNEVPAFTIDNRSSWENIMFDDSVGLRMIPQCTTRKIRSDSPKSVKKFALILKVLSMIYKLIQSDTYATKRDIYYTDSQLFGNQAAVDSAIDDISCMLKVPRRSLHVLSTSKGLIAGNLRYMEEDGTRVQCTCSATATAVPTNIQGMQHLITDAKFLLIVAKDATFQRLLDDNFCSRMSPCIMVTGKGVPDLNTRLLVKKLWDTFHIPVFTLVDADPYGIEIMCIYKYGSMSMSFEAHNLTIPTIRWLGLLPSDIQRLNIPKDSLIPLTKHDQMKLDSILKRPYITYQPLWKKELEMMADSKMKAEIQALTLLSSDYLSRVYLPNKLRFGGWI
Put plainly: SEC; proteins co-expressed in FreeStyle 293-F cells; lysate (25 mM HEPES-NaOH pH 7.5, 500 mM NaCl) on anti-Flag M2 affinity gel, eluted with Flag peptide, then Superdex 200 Increase 10/300 GL; fractions on Coomassie-stained SDS-PAGE.

Test [2] has as its target T2, Flag-tagged mouse SPO11 (β isoform) Y138F (mouse) (UniProt Q9WTK8).
T2 sequence: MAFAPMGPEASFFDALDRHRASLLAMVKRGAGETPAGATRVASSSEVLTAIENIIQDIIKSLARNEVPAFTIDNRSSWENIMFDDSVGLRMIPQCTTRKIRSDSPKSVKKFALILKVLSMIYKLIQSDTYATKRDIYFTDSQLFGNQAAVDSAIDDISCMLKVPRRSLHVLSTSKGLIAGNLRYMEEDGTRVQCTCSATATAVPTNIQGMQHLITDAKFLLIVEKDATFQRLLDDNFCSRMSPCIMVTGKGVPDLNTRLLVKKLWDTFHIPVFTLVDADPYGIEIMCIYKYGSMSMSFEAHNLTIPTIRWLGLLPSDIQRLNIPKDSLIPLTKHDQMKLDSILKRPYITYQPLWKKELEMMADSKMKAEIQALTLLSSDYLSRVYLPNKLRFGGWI
Described as above.

The target in test [3] is T3, Flag–SPO11–TOP6BL complex (1:1), wild type (mouse) (UniProt Q9WTK8+J3QMY9). Put plainly: SEC; self-association of the purified SPO11–TOP6BL complex: anti-Flag affinity-purified material on Superdex 200 Increase 10/300 GL, size standards from a separate calibration run; both purified.
In test [4] the target is T3, Flag–SPO11–TOP6BL complex (1:1), wild type (mouse). Put plainly: mass photometry; self-association of the purified SPO11–TOP6BL complex, 28 nM, 25 mM HEPES-NaOH pH 7.5, 150 mM NaCl, 2 mM DTT, with 5 mM ATP; both purified.
For test [5] the target is unchanged. Put plainly: mass photometry; self-association of the purified SPO11–TOP6BL complex, 28 nM (legend; methods say 15 nM final), 25 mM HEPES-NaOH pH 7.5, 150 mM NaCl, 2 mM DTT, without ATP; both purified.

No constants are given. Whether binding was seen depends on the method and setting. Some entries that bind do so weakly or less than the wild type. Where a sequence is shown, tags or fusion partners need not be part of it.

B1: mouse TOP6BL, untagged (natural protein, UniProt J3QMY9-1 1-579, looked up)
chain: MERTALAVCEILRYLIIHWKCEAGTAKGTLLDGQLVISIEALRSKHLPDSLHCIITIASTRSVYGGLNFKKFLQEIQPALPRLSAKLALASEEGGRSQDASGIAPCQVTFEVDENSQSLMTDCLVIKHFLRKIIIVHHKLKFSFSVAVNGTLSAETFGAENEPTLRLDNGVTLVVGFQRYVSKPKLNWSEAHCSRIHPVLGHPAPLFIPDAKADTGLLGELTLTPAAALCPSPKGFSSQLCRISSVSIFLYGPLGLPLLSSDQDQPSTAVFRDTSYFIDWKKYNLFMVPNLDLNLDTQSVLPDVNYKAESPEGNQSQNMNAQGPALLLFLFVDFQSDVPVQQAKIWGLHTLLTAHLSAILSESRSTVQQSIQSAVDQVWQLYHHDAKTQQRLQASLSVAVNSIMSVLTGSTRSSFRKTCLQALEAADTQEFGVKLHRIFYDITQHQFLKHCSCDTEQHLTPEKNISAQNTKDQHKNIAQEFPEESIGQAENKRPKRGSPNHGREESRVLGSARDRSPPKSATRDRELTEVSLTARGSQTQAAHGRAQAAEAASPAGGLEDLWLQEVSNLSEWLNPGHRS
notes: mouse TOP6BL, UniProt J3QMY9-1, untagged, optimized coding DNA
With B1, the binding result in test [1] and in test [2] was “binds” each time.

B2: Flag–SPO11–TOP6BL complex (1:1), wild type (complex, UniProt Q9WTK8-1 1-396; J3QMY9-1 1-579)
chain 1: MAFAPMGPEASFFDALDRHRASLLAMVKRGAGETPAGATRVASSSEVLTAIENIIQDIIKSLARNEVPAFTIDNRSSWENIMFDDSVGLRMIPQCTTRKIRSDSPKSVKKFALILKVLSMIYKLIQSDTYATKRDIYYTDSQLFGNQAAVDSAIDDISCMLKVPRRSLHVLSTSKGLIAGNLRYMEEDGTRVQCTCSATATAVPTNIQGMQHLITDAKFLLIVEKDATFQRLLDDNFCSRMSPCIMVTGKGVPDLNTRLLVKKLWDTFHIPVFTLVDADPYGIEIMCIYKYGSMSMSFEAHNLTIPTIRWLGLLPSDIQRLNIPKDSLIPLTKHDQMKLDSILKRPYITYQPLWKKELEMMADSKMKAEIQALTLLSSDYLSRVYLPNKLRFGGWI
chain 2: MERTALAVCEILRYLIIHWKCEAGTAKGTLLDGQLVISIEALRSKHLPDSLHCIITIASTRSVYGGLNFKKFLQEIQPALPRLSAKLALASEEGGRSQDASGIAPCQVTFEVDENSQSLMTDCLVIKHFLRKIIIVHHKLKFSFSVAVNGTLSAETFGAENEPTLRLDNGVTLVVGFQRYVSKPKLNWSEAHCSRIHPVLGHPAPLFIPDAKADTGLLGELTLTPAAALCPSPKGFSSQLCRISSVSIFLYGPLGLPLLSSDQDQPSTAVFRDTSYFIDWKKYNLFMVPNLDLNLDTQSVLPDVNYKAESPEGNQSQNMNAQGPALLLFLFVDFQSDVPVQQAKIWGLHTLLTAHLSAILSESRSTVQQSIQSAVDQVWQLYHHDAKTQQRLQASLSVAVNSIMSVLTGSTRSSFRKTCLQALEAADTQEFGVKLHRIFYDITQHQFLKHCSCDTEQHLTPEKNISAQNTKDQHKNIAQEFPEESIGQAENKRPKRGSPNHGREESRVLGSARDRSPPKSATRDRELTEVSLTARGSQTQAAHGRAQAAEAASPAGGLEDLWLQEVSNLSEWLNPGHRS
With B2, the binding result in test [3] was “no binding”; in test [4] it was “no binding (tested: 28 nM, with 5 mM ATP)”; in test [5], “no binding (tested: 28 nM)”.
